Results published in PubChem BioAssay AID602310 (National Center for Advancing Translational Sciences (NCATS), 2012).
Hit rate of the full screen: of about 410,000 compounds, about 310 (0.076%) were called active. Inconclusive results, whose numbers are uncertain, are shown with a selection of clear calls. Calls come from the whole dose curve; as a rule, active = well fitted curve in the direction sought with a large enough effect; inconclusive = small, poorly fitted or top-dose-only effect; inactive = flat fitted curve, though single readings scatter. Where the call is inconclusive, the potency comes from a doubtful curve fit.
% is set by controls: 0 for no effect and ±100 for the full control effect; potency is the fitted concentration of half-maximal effect; tags give direction and shape of the fitted curve.
Note: nearly all actives have a fitted effect of over 60% in size.
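Throughout, for activity, negative = active: hits raise eYFP signal because A3G escapes Vif-driven loss.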

Each compound was assayed against DNA dC->dU-editing enzyme APOBEC-3G (Homo sapiens) (UniProt Q9HC16) (assay: qHTS for Inhibitors of Vif-A3G Interactions: qHTS). Details: HeLa A3G-eYFP + Vif (tagged APOBEC3G with the HIV-1 protein that degrades it), YFP fluorescence, overnight; series mostly up to 46.1 µM; activity, negative = active: at the top concentration.
Chain of UniProt Q9HC16 (Q9HC16 whole entry, looked up): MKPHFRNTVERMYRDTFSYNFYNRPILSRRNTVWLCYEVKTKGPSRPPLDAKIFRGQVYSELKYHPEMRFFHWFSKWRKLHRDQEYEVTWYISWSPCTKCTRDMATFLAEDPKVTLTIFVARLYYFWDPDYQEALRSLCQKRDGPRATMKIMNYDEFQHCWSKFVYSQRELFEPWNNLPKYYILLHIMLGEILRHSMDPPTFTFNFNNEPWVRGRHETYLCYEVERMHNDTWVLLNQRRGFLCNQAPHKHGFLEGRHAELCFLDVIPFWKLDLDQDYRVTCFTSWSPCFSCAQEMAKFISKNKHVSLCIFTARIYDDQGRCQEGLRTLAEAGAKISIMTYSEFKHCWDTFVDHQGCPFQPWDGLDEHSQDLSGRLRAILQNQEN
Summary of the method: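 Read-out is eYFP fluorescence (Ex 488/Em 500-530) from Vif-expressing HeLa A3G-eYFP cells; more signal means A3G escaped Vif-mediated degradation. Cells plated overnight, compound pinned in, incubated overnight at 37 deg C.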
O=S(=O)(Nc1cccc2cccnc12)c1cccs1 was tested, and the Potency was inconclusive: 3.55 µM [inhibitor, full curve, poor fit]. In the case of Cc1ccc(Nc2cc(C)c3c(O)cccc3n2)cc1C, the “activity, negative = active” value is reported as inactive: 2.08%. In the case of CCCC1(c2ccccc2)NC(=O)N(CC(=O)c2[nH]c(C)c(C(=O)OCC)c2C)C1=O (centres undefined), the “activity, negative = active” value is reported as inactive: -5.88%. For COc1ccc(NC(=O)CN2C(=O)C3(SCC(=O)N3c3ccccc3)c3ccccc32)cc1Cl (centres undefined), the Potency was inconclusive: 20 µM [inhibitor, partial curve, poor fit]. For COc1ccc(/C=C2\CCc3ccccc3C2=O)cc1OC, the Potency was inconclusive: 28.2 µM [inhibitor, single point]. With Cc1ccc(S(=O)(=O)Nc2cccc3cccnc23)cc1 the Potency was inconclusive: 25.1 µM [inhibitor, single point]. In the case of COc1ccc(Nc2cnn(-c3nc4ccccc4s3)c(=O)c2Cl)cc1, the Potency is reported as inconclusive: 11.2 µM [inhibitor, single point]. With O=C(Nc1ccc(Br)cc1)c1cc(-c2ccncc2)nc2ccccc12 the Potency was inconclusive: 2.82 µM [inhibitor, full curve, poor fit]. With CCOc1ccc(-c2cn3ccccc3n2)cc1[N+](=O)[O-] the Potency was inconclusive: 17.8 µM [inhibitor, single point]. For C(=C\c1nnc2c3ccccc3ncn12)/c1ccccc1, the Potency was inconclusive: 1.12 µM [inhibitor, full curve]. O=[N+]([O-])/C=C\c1ccc(N2CCCC2)c(F)c1 was tested, and the Potency was inconclusive: 10 µM [inhibitor, partial curve, poor fit]. O=C(CCCl)N1c2ccccc2C=Cc2ccccc21 was tested, and the Potency was inconclusive: 35.5 µM [inhibitor, single point]. In the case of C/C(=N/Nc1ccc([N+](=O)[O-])cc1)c1c[nH]c2ccccc12, the Potency is reported as inconclusive: 10 µM [inhibitor, partial curve]. Cc1ccc(NC(=S)NNC(=S)Nc2ccc(C)cc2)cc1 was tested, and the Potency was inconclusive: 10 µM [inhibitor, partial curve]. In the case of CC(NC(=O)c1ccc2c(c1)N(Cc1ccc(Cl)cc1)C(=O)c1ccccc1S2=O)c1ccccc1 (centres undefined), the “activity, negative = active” value is reported as inactive: 0.262%. Cc1ccc(CNC(=O)CCCn2c(=O)c3ccccc3n(Cc3ccccc3C)c2=O)cc1 was tested, and the “activity, negative = active” value was inactive: 1.78%. With O=C(CCl)Nc1cccc(S(=O)(=O)NC2=NCCCCC2)c1 the Potency was inconclusive: 10 µM [inhibitor, partial curve, poor fit]. For COc1cc2c(cc1OC)C(C)N(C(=O)Nc1ccccc1)CC2 (centres undefined), the Potency was inconclusive: 7.08 µM [inhibitor, partial curve]. O=C(NC(=S)N1CCCC(C(F)(F)F)C1)c1ccc(F)cc1 (centres undefined) was tested, and the Potency was inconclusive: 35.5 µM [inhibitor, single point].
